# Measurements reported in article PMC4336329 (PLoS ONE, 2015).
# Hit rate of the full screen: of about 310,000 compounds, about 14,000 (4.5%) showed an effect of 50% or more. The effect is printed as a negative number. Some of the results follow.
# Biological target: human ether-à-go-go-related gene (hERG) potassium channel (human, UniProt Q12809)
# Assay: primary screen, population patch clamp on CHO cells stably expressing hERG
# 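Further: peak tail current of the secondary pulse compared with the same well before compound.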
# Chain of human ether-à-go-go-related gene (hERG) potassium channel (Q12809 whole entry, looked up): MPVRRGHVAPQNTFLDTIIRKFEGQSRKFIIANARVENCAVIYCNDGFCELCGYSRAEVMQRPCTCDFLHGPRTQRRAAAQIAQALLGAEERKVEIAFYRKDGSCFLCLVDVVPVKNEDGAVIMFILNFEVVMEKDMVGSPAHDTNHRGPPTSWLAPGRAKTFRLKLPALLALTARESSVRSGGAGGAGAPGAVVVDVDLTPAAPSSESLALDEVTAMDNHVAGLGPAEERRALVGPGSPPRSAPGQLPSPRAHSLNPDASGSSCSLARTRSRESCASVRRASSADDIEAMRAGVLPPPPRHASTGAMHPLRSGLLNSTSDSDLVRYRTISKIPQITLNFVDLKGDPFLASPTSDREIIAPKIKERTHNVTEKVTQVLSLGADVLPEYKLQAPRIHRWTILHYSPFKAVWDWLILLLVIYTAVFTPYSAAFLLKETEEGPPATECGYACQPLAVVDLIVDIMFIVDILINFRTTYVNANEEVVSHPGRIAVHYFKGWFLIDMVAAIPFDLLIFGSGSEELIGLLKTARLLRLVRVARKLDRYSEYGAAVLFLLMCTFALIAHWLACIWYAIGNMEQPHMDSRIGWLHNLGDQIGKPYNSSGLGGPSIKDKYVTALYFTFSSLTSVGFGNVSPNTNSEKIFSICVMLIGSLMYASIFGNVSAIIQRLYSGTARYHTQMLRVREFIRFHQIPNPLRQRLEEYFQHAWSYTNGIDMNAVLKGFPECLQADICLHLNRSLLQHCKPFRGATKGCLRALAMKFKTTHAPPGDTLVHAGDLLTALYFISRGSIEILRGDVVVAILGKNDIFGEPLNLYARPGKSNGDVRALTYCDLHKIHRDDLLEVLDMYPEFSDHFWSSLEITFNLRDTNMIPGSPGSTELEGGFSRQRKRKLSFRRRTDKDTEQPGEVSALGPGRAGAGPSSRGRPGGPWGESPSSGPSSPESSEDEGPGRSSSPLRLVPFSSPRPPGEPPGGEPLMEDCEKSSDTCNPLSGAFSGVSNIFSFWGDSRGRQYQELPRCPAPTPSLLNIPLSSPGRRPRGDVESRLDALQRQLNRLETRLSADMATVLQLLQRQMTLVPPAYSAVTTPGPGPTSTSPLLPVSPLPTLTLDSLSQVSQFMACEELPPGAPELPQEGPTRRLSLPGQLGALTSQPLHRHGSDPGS
row,SMILES,"hERG current change (%, negative = inhibition) at 10uM [%]"
1,Cc1ccc(OCC(=O)NNC(=O)CSc2ncc(C#N)c(N)n2)cc1,30.3
2,CC1(C)CC(=O)C(N=Nc2cc3c(cc2[N+](=O)[O-])OCCO3)=C(O)C1,31.2
3,CN(C)c1ccc(C(=S)N2CCN(Cc3ccccc3)CC2)cc1,-44.1
4,Cn1c(O)c(/C=N/N2CCCCC2)c(=O)[nH]c1=O,13.8
5,O=C(NCC1CCCO1)C1CCN(S(=O)(=O)N2CCCC2)CC1 (centres unmarked),-9.85
6,CC1=NN(C(=O)CCc2ccccc2O)C(O)(C(F)(F)F)C1 (centres unmarked),18.9
7,O=C(CN(C1CCCCC1)S(=O)(=O)c1ccc(Cl)cc1)NCCCO,-25.8
8,NCCCC[C@H]1CNC(=O)C(=O)N1CCC12CC3CC(CC(C3)C1)C2,-6.32
9,Cc1ccc(SCC(=O)OCC(=O)NC2CCCCCCC2)cc1,-4.33
10,O=C(NCCc1ccccc1)C1CCN(Cc2cccc3ccccc23)CC1,-34.4
11,Cc1ccc2nc(N3CCN(c4ccccc4F)CC3)c(C=O)c(=O)n2c1,-70.1
12,Cc1[nH]c(=O)[nH]c(=O)c1NC(=O)c1sc2nc3c(C)cccc3cc2c1N,18.8
13,CCN(CC)CC(O)COC(c1ccccc1)c1ccccc1 (centres unmarked),-57.8
14,COc1ccc(/C=C2\SC(=O)N(CCNC(=O)Cc3coc4cc(C)ccc34)C2=O)cc1OC,4.76
15,CCOc1ccc(N(C(=O)c2snc(C(N)=O)c2N)C(C(=O)NCC2CCCO2)c2ccco2)cc1 (centres unmarked),8.01
16,O=C(CN(c1ccc(Cl)c(C(F)(F)F)c1)S(=O)(=O)c1ccccc1)N1CCOCC1,-34.6
17,O=S(=O)(NCc1cn2ccsc2n1)c1ccc2c(c1)OCCO2,8.16
18,N#C/C(C(=O)NCc1ccccc1)=C1/N=C(NC(=O)c2cccs2)c2ccccc21,-3.78
19,COc1ccc(C2C(C(C)=O)=C(O)C(=O)N2CCCn2ccnc2)cc1OC (centres unmarked),-10.8
20,COc1cc2c(cc1OC)C(/C(C#N)=N\O)=NC(C)(C)C2,2.2
21,CCOC(=O)N1CCN(C(=O)CCCn2nc(C)c3sc4ccccc4c3c2=O)CC1,-40.8
22,COCCN(C(=O)Nc1ccccc1)c1ccccc1C,9.3

row,SMILES,"hERG current change (%, negative = inhibition) at 10uM [%]"
1,COc1ccccc1CNC(=O)C(=O)NCC1CCCO1 (centres unmarked),12.8
2,Cc1ccc(OCC(=O)N/N=C\c2c(C)[nH]n(-c3ccccc3)c2=O)c([N+](=O)[O-])c1,5.19
3,Oc1ccc(/C=N/N(Cc2ccccc2)c2ccccc2)cc1,35.8
4,CC(NC(=O)COc1ccc(/C=N/NS(=O)(=O)c2ccccc2)cc1)c1ccccc1 (centres unmarked),10.2
5,C/C(=N\N1C(=O)CSC1=S)c1ccc(Br)cc1,2.26
6,CC(C)(C)c1ccc(C(=O)NCC(=O)OCC(=O)Nc2ccc3c(c2)OCCO3)cc1,3.07
7,Cn1cccc1/C=C1\SC(=S)N(NC(=O)c2cccc(Cl)c2)C1=O,0.415
8,Cc1nnc2ccc(-c3cccc(NS(=O)(=O)c4ccccc4Cl)c3)nn12,-16.3
9,O=C(NC(=O)c1ccccc1)Nc1ccccn1,9.33
10,CCCCn1c(N)c(N(CC(C)C)C(=O)c2cc(-c3ccc(F)cc3)nc3ccccc23)c(=O)[nH]c1=O,8.13
11,O=C(CSc1ccccc1C(=O)O)c1ccc([N+](=O)[O-])cc1,-1.57
12,COC(=O)c1cc(S(=O)(=O)N2CCN(c3ccc(F)cc3)CC2)cn1C,3.66
13,COc1ccccc1-n1c(CNC(=O)c2ccco2)nnc1SCC(=O)Nc1nccs1,5.63
14,CC12CN3CC(C)(CN(C1)C3c1cccnc1)C2=O (centres unmarked),-0.24
15,O=C(CN1CCN(S(=O)(=O)c2ccc(Br)cc2)CC1)N/N=C/c1cc([N+](=O)[O-])ccc1Cl,-32.9
16,Cc1cc(=O)oc2cc(OCC(=O)NCCc3ccccc3)ccc12,20.1
17,CCOC(=O)CN1C(=O)S/C(=C/c2ccc(C)o2)C1=O,-72.7
18,Cc1cc([N+](=O)[O-])c(N2CCC[C@@H]2C(=O)O)c([N+](=O)[O-])c1,18.2
19,COc1ccc(OCC(=O)N2CCCC2=O)c([N+](=O)[O-])c1,14.8
20,COc1ccccc1NC(=O)CSc1nnc(CSc2nc(C)cc(C)n2)o1,-0.217
21,CC(C)[C@H](NC(=O)NCc1cccs1)C(=O)O,18.7
22,COc1ccc2cc(C)c(SCC(=O)Nc3cc(C)on3)nc2c1,6.5
